# Measured values published in ChEMBL document CHEMBL4888484, “Replenishing the malaria drug discovery pipeline: Screening and hit evaluation of the MMV Hit Generation Library 1 (HGL1) against asexual blood stage Plasmodium falciparum ,using a nano luciferase reporter read-out” (2022).
# Among all 150,000 compounds or so, about 540 (0.36%) showed an effect of 50% or more. Some of the results follow.
# Test system: Plasmodium falciparum
# Assay: Primary screen in NF54 nanoGlo assay, in single point, at 2uM, 72h; a lower Z score goes with more inhibition
# Type: functional, Erythrocyte
# Settings: timepoint 72 hour
SMILES,% Inhibition,Z score
COc1ccc(CCNC(=O)Cc2ccc(N(Cc3ccccc3C)C(=O)c3cccs3)cc2)cc1,-2%,0.29
CNC(=O)[C@@H]1CCCCN1Cc1cc2cc(F)ccc2o1,3%,-0.43
FC(F)(F)c1cccc(Nc2c(-c3ccc(-c4cccc(C(F)(F)F)c4)o3)nc3ccc(Cl)cn23)c1,-3%,0.41
CC(C)c1nc(CN2C[C@H]3CN(C4CCCCC4)C[C@@]3(C(=O)O)C2)co1,-5%,0.7
Cc1ccc(CCC(=O)N2CC(N3CCc4ccccc4C3)C2)cc1F,2%,-0.32
Cn1cnc2cc(-c3noc(CNS(=O)(=O)c4ccccc4)n3)ccc21,2%,-0.28
C[C@H]1CCCCN1CCN(C)Cc1cncnc1,-3%,0.51
O=C1CCC(C(=O)NC(c2ccc(Cl)cc2)c2ccsc2)CN1 (centres undefined),-5%,0.47
O=C(NCc1ccccn1)c1ccc(N2CCCN(Cc3ccccc3)C2=O)cc1,3%,-0.49
Cc1nc(-c2cncc(Cl)c2)n(CC(C)(C)O)n1,-1%,0.12
CS(=O)(=O)CCN1C(=O)[C@@H](c2ccccc2)N(Cc2ccccc2)C1=O,-11%,1.75
CC1CCN(S(=O)(=O)NC2CCCC2)CC1,28%,-3.19
c1ccc(CNc2nc(C3CCCC3)nc3c2CCOCC3)cc1,-10%,0.94
CCN1CCN(c2nc(S(=O)(=O)c3ccc(C)cc3)c(Cl)s2)CC1,-3%,0.42
CCc1ccc(S(=O)(=O)N2CC(=O)N3CCc4ccccc4[C@@H]3C2)cc1,-6%,0.87
CC1(c2cc(F)ccc2F)NC(=O)N(CC2CCCCO2)C1=O (centres undefined),-11%,1.04
N#C[C@@H](C(=O)c1cnn2ccccc12)c1nc(-c2ccccc2)cs1,13%,-1.12
O=C(NC[C@H]1CCCO1)c1cn2c3c(cc(Br)cc3c1=O)CC2,17%,-2.13
C[C@H](O)CCNC(=O)Nc1cc(C#N)c(Br)cn1,-3%,0.41
Cc1nc2ccccc2c(N2CC[C@H](C(=O)N3CCCC3)C2)c1C,-10%,1.88
COCCn1cncc1CNC(=O)N1CCCCC[C@H]1c1ccco1,-4%,0.56

SMILES,% Inhibition,Z score
Cc1c(NC(=O)c2ccccc2-c2ccccc2)ccc(N2CCCC2=O)c1NC(=O)c1ccccc1-c1ccccc1,37%,-4.97
O=C1NCCCCCCN(C(=O)Nc2ccccc2)[C@H]2CCCC[C@@H]12,-7%,0.91
Cc1cc(=O)c(-c2nc(-c3cccnn3)no2)c[nH]1,-2%,0.47
CC(CC(O)c1ccco1)NS(=O)(=O)N(C)C1CCOCC1 (centres undefined),-8%,0.93
CC1(C)CN(C(=O)c2cc3ncccc3o2)[C@H]2COC[C@@H]2O1,-2%,0.34
C[C@H]1C(=O)NCCN1C(=O)c1ccc(Cc2ccccc2)cc1,-8%,1.32
N#CC1CN(c2ccncc2Cl)CC12C(=O)Nc1ccccc12 (centres undefined),0%,0.01
O=C(NCCn1ccn2nccc12)C1CCCC1,-10%,1.27
COc1cccn(CC(=O)N(C)Cc2noc(C3CCC3)n2)c1=O,-6%,1.11
CC(C)=CCN1CC2(CCN(C(=O)CCc3ccncc3)CC2)CC1=O,-11%,1.3
O=C(Cc1cccnc1)N1C2C=CCC1CC2 (centres undefined),-9%,1.14
Cc1cccc(N2CCN(C(=O)CN3C(=O)CCn4nc(-c5cn(C)c6ccccc56)cc43)CC2)c1C,-3%,0.52
Cc1c(Cl)c(C(F)F)nn1CC(=O)N1CCN(C(=O)c2ccco2)CC1,9%,-1.06
O=C(Nc1ccc(O)c(-c2nc3cnccc3o2)c1)c1ccc(-c2ccc(Cl)c(Cl)c2)o1,1%,-0.19
CN(CCCCN1CCOCC1)c1cc(C(N)=O)ccn1,1%,-0.17
NC(=O)c1nnsc1N1CCCCC1,-4%,0.64
COc1ccc(-c2ccc(=O)n(CN3CCn4nc(C(F)(F)F)nc4C3)n2)cc1OC,-2%,0.38
CN(Cc1nn(-c2ccc(F)cc2)c2c1CCC2)C[C@H]1CCCO1,-5%,0.95
CC[C@H](OC1CCCCC1)C(=O)Nc1cnccc1CO,-5%,0.67
Nc1cc(N2CCCN(CCCc3ccccc3)CC2)ncn1,-3%,0.44
Cc1c(C(=O)O)cccc1S(=O)(=O)N1C[C@H]2CCC(=O)c3cccc1c32,8%,-1.4
